# Data taken from PMC5515408.
# Some of the results follow. At the low end of the ranking the order means little.
# Tested on: MYC (p64) + MAX (p21), in MYC:MAX
# Test: protein-binding microarray (anti-MAX antibody)
# Settings: PBM: 15 mM Tris-HCl pH 7.5, 100 mM KCl, 0.075% NP40, 7.5 mM beta-mercaptoethanol, 375 ng/ul BSA, 8 ng/ul poly(dA-dT):(dA-dT), 550 ng complex, 60 min, room …; high values mean tight binding; double strand, one strand shown; sequences stand for … in CCGGC…TTAATAGCTAAGATTACTATATCGACG
row,Sequence,binding signal (log2 normalized fluorescence)
1,TGAAATGGGTTT,0.155
2,TGATTGCACGTA,0.132
3,TGATGCACAGTA,0.149
4,TGACTCGTCGTA,0.0849
5,TGAGAGTCGGTA,-0.281
6,TGACATCGGGTA,0.234
7,TGAGCGGCCGTA,-0.108
8,TGACAAGCCGTA,-0.000872
9,TGAAACGTGTTA,0.678
10,TGATTGTAAGTA,-0.0911
11,TGAGGTGCGGTA,0.265
12,TGAGCTATGGTA,-0.0426
13,TGACGCCGTGTA,0.275
14,TGATCTTAAGTA,-0.0507
15,TGACGAAGTGTA,0.078
16,TCAAAAGTGGTA,0.0112
17,TTATACGTGATA,0.293
18,TGAGCGGCAGTA,0.0431
19,TGATACGGCGTA,-0.0658
20,TGAAACAGGGTA,0.207
21,TGATTCGTTGTA,0.0963
22,TGAGACCATGTA,0.234
23,TGATGCAATGTA,0.0212
24,TGATGTGAAGTA,-0.0253
25,TGATATTGCGTA,0.0584

row,Sequence,binding signal (log2 normalized fluorescence)
1,TGACCCTCTGTA,0.0911
2,TGATAAGGGGTA,0.0838
3,TGAAGGCGAGTA,-0.0219
4,TTACACGTGGCG,0.878
5,TGAGTGTTGGTA,0.0609
6,TGAGAACGTGTA,0.449
7,TGAGGAGATGTA,-0.126
8,TGAATAGCAGTA,-0.033
9,TGAACTGTAGTA,-0.0562
10,TAACACGTGGTA,0.946
11,TGAATTCGTGTA,0.379
12,TGACGTCGTGTA,0.338
13,TGAAACATTGTA,0.262
14,TGACCCGCTGTA,0.182
15,TGAAGTTTCGTA,0.0215
16,TGACTCAAGGTA,0.0877
17,TGACACGTAACA,0.468
18,TGATGCAGGGTA,0.0366
19,TGACGCGTCGTG,0.366
20,TGAACTGTTGTA,0.0311
21,TGAGGCTTCGTA,-0.0168
22,TGACCCGTCGGA,-0.0853
23,TGACAATGCGTA,0.338
24,TGATCATTAGTA,-0.0315
25,TGACAATTGGTA,0.0104

row,Sequence,binding signal (log2 normalized fluorescence)
1,TGGCAAGTGGTA,0.374
2,TGAGTTTGTGTA,-0.117
3,TGACCGGAAGTA,0.135
4,TGAGCATGAGTA,0.474
5,TGAAATGATGTA,0.168
6,TGATCCTTAGTA,-0.0535
7,TGAAAGGCAGTA,-0.0483
8,TGATGAGTAGTA,0.039
9,TGAGAAGGGGTA,0.248
10,TGAGAAAACGTA,-0.104
11,TGAAAACCTGTA,0.222
12,TGAAAATCCGTA,-0.0374
13,TTACACATGCTA,0.812
14,TGAAGCTACGTA,0.0596
15,TGAGTTTGCGTA,0.000556
16,TGAGTAAGGGTA,-0.103
17,TGAGACAGTGTA,0.101
18,TGACTGCTTGTA,0.107
19,TGAGAGGCCGTA,0.0066
20,TGACTGAGTGTA,0.0572
21,TGATGAAGGGTA,-0.106
22,TCTCAGGTGGTA,0.301
23,TGAAGGCCTGTA,0.18
24,TGACTCCCAGTA,-0.0472
25,TGAGAAAGAGTA,-0.29

row,Sequence,binding signal (log2 normalized fluorescence)
1,TGAGAGGTTGTA,0.0898
2,TGATTTCCAGTA,0.0193
3,TGAATATCCGTA,-0.0266
4,TGAAGTCATGTA,0.105
5,TGACACGGGTTT,0.321
6,TGAGGACGAGTA,-0.00251
7,TGAATGAAGGTA,0.113
8,TGGCACCTGGCA,0.319
9,TTACAGGTGGTT,0.396
10,TGACAACTGGTA,-0.0365
11,CCACACGTGGTG,0.705
12,TGAGAGGTCGTA,0.0079
13,TGAGGTTCGGTA,0.0606
14,TGATCTTTTGTA,-0.0479
15,TGAGTTTAGGTA,-0.0854
16,TGACCGGCGGTA,0.135
17,TGCCTCGTGGTA,0.797
18,TGAATGTCTGTA,0.216
19,TGATCGTTCGTA,0.0801
20,TGATACGACGTA,-0.0183
21,TGAGTCTAAGTA,-0.108
22,TGAGGCTGCGTA,0.0498
23,TGATTCCCTGTA,-0.0621
24,TGAGGGAATGTA,0.25
25,TGAAAAACAGTA,-0.0882

row,Sequence,binding signal (log2 normalized fluorescence)
1,TGATTGGCAGTA,-0.0446
2,TGATACAGAGTA,-0.122
3,TGATAAATTGTA,-0.0436
4,TGATTAGGGGTA,0.174
5,TGAAGTCGGGTA,-0.102
6,TGGCACGTGGTT,0.67
7,TGAGATCGGGTA,-0.127
8,TGAGCCAATGTA,0.00395
9,TGATTTCACGTA,0.111
10,TGATGATACGTA,0.00585
11,TGACACCTACTA,0.18
12,TGAGGTGCCGTA,0.158
13,TGAGCCCGGGTA,-0.174
14,TGACAATCGGTA,0.0244
15,TGAGGCTATGTA,-0.0462
16,TGAGCGTGAGTA,0.26
17,TGAAGATAGGTA,-0.132
18,TGACACGTTTGA,0.577
19,TGATTCCATGTA,0.122
20,TGAAATCGTGTA,0.24
21,TGAATCTTCGTA,0.00844
22,TGAATACCTGTA,0.159
23,TGACTGAACGTA,0.112
24,TGAATCGCGGTA,0.27
25,TAATTCGTGGTA,0.282

row,Sequence,binding signal (log2 normalized fluorescence)
1,TGACAGCAGGTA,0.122
2,TGATCAGCTGTA,0.181
3,TGAGACAGAGTA,-0.113
4,TGTCACCTGGTA,0.424
5,TGACACCAGGTA,0.225
6,GGACACGGGGTA,0.668
7,TGAGGGACGGTA,0.0602
8,TGACACTCCGTA,0.137
9,TGAAGACGTGTA,0.325
10,TGAGCCTTTGTA,-0.127
11,TGAACGCTGGTA,0.161
12,TGAAACCCCGTA,0.269
13,TGATGCAACGTA,0.297
14,TGATTCAAAGTA,-0.0864
15,TGAGGAAACGTA,0.074
16,TGACAACAAGTA,0.234
17,TGATGGCCGGTA,0.201
18,TGAGATCGAGTA,-0.0161
19,TGAGGTTATGTA,-0.0648
20,TGAGATGGGGTA,0.195
21,TGAGCGCAGGTA,0.113
22,TGAAGAGTAGTA,0.0724
23,GGACACGGTGTA,0.262
24,TGATATCTGGTA,-0.00821
25,TGAAGGACGGTA,-0.11

row,Sequence,binding signal (log2 normalized fluorescence)
1,TGACACGTGTAT,0.766
2,TGAATAATAGTA,0.0312
3,TGAAATTTAGTA,-0.187
4,TCACACGTGGGC,0.832
5,AGACACGTTGTA,0.628
6,TGAAAGTGGGTA,0.0518
7,TGACCCTCAGTA,-0.04
8,TGATAGACTGTA,0.0762
9,TGATAAGTTGTA,-0.0983
10,TGAGTCTCTGTA,-0.162
11,TGAATCATTGTA,0.0491
12,TGAGGCTTAGTA,-0.218
13,TGAGGTCCGGTA,-0.0494
14,TGATACTATGTA,0.052
15,CGCCACGTGGTA,0.88
16,TGGATCGTGGTA,0.28
17,TGAAGCCAGGTA,0.138
18,TGATATCCGGTA,-0.186
19,TGACACGGGGTC,0.583
20,TGAAATATCGTA,-0.00984
21,TGAAGATTCGTA,-0.165
22,TGATCGCTAGTA,-0.0289
23,TGAGACGTTGTA,0.23
24,TGAACAGGCGTA,-0.0122
25,TGAGTCTCGGTA,-0.0649

row,Sequence,binding signal (log2 normalized fluorescence)
1,TGAGTTAGTGTA,-0.0573
2,TGATTACCTGTA,-0.0585
3,TGAATTACGGTA,0.0239
4,TGATTTTCCGTA,-7.43e-05
5,TGAAACCTAGTA,0.0966
6,GGACACGTGGAG,0.745
7,TGAGTGTAAGTA,-0.0332
8,TGAGATGAAGTA,-0.216
9,TGACATCGCGTA,0.317
10,TGATCCAGTGTA,-0.0273
11,TGACCTCATGTA,0.575
12,TGACCGTGGGTA,0.187
13,TGATTCCCGGTA,-0.0528
14,TGATTCCCAGTA,-0.0291
15,TGACGACTGGTA,0.0584
16,TGACGTGATGTA,0.179
17,TGACTATGAGTA,-0.185
18,TGAGTCGCCGTA,-0.161
19,TGAATCCAGGTA,-0.118
20,TGAGAGTTAGTA,-0.177
21,CCAAGGCGGAAC,0.102
22,TGATGAAGAGTA,-0.0648
23,TGACACGTATCA,0.528
24,TGAATGACCGTA,0.157
25,TGAGTACTTGTA,-0.0922

row,Sequence,binding signal (log2 normalized fluorescence)
1,TGTCACTTGGTA,0.295
2,TGAAAGCACGTA,0.323
3,TGAGCCAGGGTA,-0.17
4,TGACCCGTGGTT,0.466
5,TGACTGCTAGTA,0.193
6,TGAGAGCTAGTA,-0.13
7,TGACGCGCGGTG,0.426
8,TGACATTTGGTA,0.272
9,TGAGTCGAAGTA,0.000133
10,TGAGGATCGGTA,-0.0667
11,TGGAACGTCGTA,0.17
12,TGACGGGAAGTA,-0.0847
13,TGAGAGGTAGTA,-0.0303
14,TGACCCTATGTA,0.363
15,TGAGCTCAGGTA,0.0195
16,TGACACGTGTTA,0.722
17,TGAATTAGGGTA,-0.045
18,TGAGATAGCGTA,-0.0662
19,TGATTACACGTA,0.293
20,TGAAATCACGTA,0.167
21,TGAATGTTGGTA,0.176
22,TGAGCTATTGTA,-0.126
23,TGACGAACTGTA,0.121
24,TGAAGTTTGGTA,-0.221
25,TGAGGCCCAGTA,-0.151

row,Sequence,binding signal (log2 normalized fluorescence)
1,TGATGGACTGTA,0.0489
2,TGATCGGGAGTA,-0.148
3,TGAGCTCCCGTA,0.0359
4,TAACACGTTGTA,0.657
5,TGAACACACGTA,0.419
6,TGAGCTCCTGTA,-0.0311
7,TGATTACAAGTA,-0.132
8,GGACACGTGGTA,0.99
9,TGTAGCGTGGTA,0.575
10,TGAAGCTATGTA,-0.0292
11,TGAACCTTCGTA,0.116
12,TGATGTGACGTA,0.137
13,TGAGCTGTTGTA,0.000703
14,TGACTCACTGTA,0.273
15,TGATGGATCGTA,0.179
16,TGAAGATGCGTA,0.239
17,TGAGAATAGGTA,-0.0885
18,TGACACATGATA,0.672
19,TGATCCTCAGTA,0.0915
20,TGATCCCTTGTA,-0.107
21,TGGAACGTGGTA,0.66
22,TGACACCGCGTA,0.321
23,TGATCAGGGGTA,0.0821
24,TGAATTCGCGTA,0.0623
25,TGATTCGATGTA,0.0201

row,Sequence,binding signal (log2 normalized fluorescence)
1,TGAGCCTCAGTA,-0.0956
2,TGAGGTTTTGTA,-0.0971
3,TGATACGGGGGA,0.672
4,TGACTGCCTGTA,0.152
5,AGACTCGTCGTA,0.143
6,TGACAGGTCGTA,0.0841
7,TGAGAAAGGGTA,-0.082
8,TGAGGTTCAGTA,-0.0291
9,TGAAATTGCGTA,0.115
10,TGACGCGTGGTT,0.661
11,TGAAATATAGTA,-0.0156
12,TGACCCAGTGTA,0.103
13,TGACTTATCGTA,-0.0604
14,TGAGCCTGTGTA,0.065
15,TGAACGTCTGTA,0.123
16,TGAGTTCTGGTA,-0.132
17,TGAGAGTACGTA,0.142
18,TGAGAGGTGTTA,0.194
19,TGACTCGAAGTA,0.0717
20,TGAACCATCGTA,0.111
21,TGAAGTGGCGTA,0.0262
22,TGAACTCTTGTA,0.0117
23,TGACTTTCAGTA,0.00299
24,TGACGACCGGTA,0.189
25,TGATGCCGCGTA,0.213
